Source: the supplement of paper PMC12217912
Some of the results follow. The full chains were built here from the parent and the listed change. Values near 0.05 are background.

B1: TEV protease; numbered along this chain (parent)
chain: MGESLFKGPRDYNPISSSICHLTNESDGHTTSLYGIGFGPFIITNKHLFRRNNGTLVVQSLHGVFKVKDTTTLQQHLVDGRDMIIIRMPKDFPPFPQKLKFREPQREERICLVTTNFQTKSMSSMVSDTSCTFPSGDGIFWKHWIQTKDGQCGSPLVSTRDGFIVGIHSASNFTNTNNYFTSVPKNFMELLTNQEAQQWVSGWRLNADSVLWGGHKVFMVKPEEPFQPVKEATQL

Variants of: B1
Experiment: raw area under fraction-flipped curve 0-4 h after induction (AUC4h, not background-subtracted), DNA-recorder readout of cleavage of the substrate (dimensionless); higher = more cleavage of the substrate by the protease variant
Conditions: temperature: 34 °C; time window: 0-4 h after rhamnose induction
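Note: Bxb1 expression induced with 0.2% (w/v) L-rhamnose at OD600 near 0.5, cultures sampled hourly, flipped fraction per protease–substrate barcode pair counted by paired-end Illumina sequencing.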

Variant | area with substrate ENLFFQS | area with substrate ENLSFQS | area with substrate ENLIFQS | area with substrate ENLKFQS | area with substrate ENLLFQS | area with substrate ENLNFQS | area with substrate ENLPFQS | area with substrate ENLHFQS | area with substrate ENLGFQS | area with substrate ENLMFQS
G138T | 0.0792 | 0.0638 |  |  |  |  |  |  |  | 
G153Q | 0.0403 |  | 0.052 | 0.0309 | 0.0435 | 0.0488 | 0.0757 |  |  | 
F163M | 0.101 | 0.0562 |  |  |  | 0.0808 | 0.0613 | 0.0771 |  | 
V165M | 0.0602 |  |  | 0.0613 |  | 0.0362 | 0.0752 |  | 0.0371 | 0.038
G166E | 0.0408 |  |  | 0.0565 |  |  |  |  |  | 
A170K | 0.064 | 0.0569 |  |  | 0.0678 |  |  | 0.0885 | 0.0811 | 
A170S | 0.0673 |  |  |  |  |  | 0.0699 |  |  | 
N172H | 0.0596 | 0.06 |  | 0.0645 | 0.0481 | 0.0521 |  | 0.0506 |  | 
N172L | 0.055 |  |  |  |  |  |  |  |  | 
N172V | 0.0477 | 0.0472 |  |  |  |  |  | 0.0582 |  | 
N178Y | 0.112 | 0.0861 | 0.145 |  | 0.104 | 0.0724 |  | 0.111 |  | 
T181C | 0.101 |  |  | 0.0575 |  | 0.0665 |  |  |  | 
T181K | 0.0668 | 0.0613 |  | 0.0702 |  | 0.0622 |  |  |  | 0.024
N186H | 0.0838 |  | 0.0508 |  |  |  |  | 0.0407 |  | 
N186T | 0.101 | 0.0731 | 0.0797 |  |  |  |  |  |  | 
N193C | 0.0679 |  |  | 0.0693 |  |  | 0.0578 |  |  | 
Q194W | 0.0867 |  |  |  |  |  |  | 0.063 | 0.0553 | 
V200D | 0.0738 | 0.0807 |  |  |  |  |  | 0.0659 | 0.0547 | 
S201H | 0.0573 |  |  | 0.066 |  | 0.0519 |  | 0.0753 |  | 
V210E | 0.0654 |  |  | 0.0582 |  |  |  |  |  | 
H215S | 0.0431 |  |  |  | 0.0579 | 0.0548 |  |  |  | 
L235F | 0.104 |  | 0.0749 |  |  |  |  | 0.0132 |  | 0.0872
L235Y | 0.112 | 0.0703 | 0.0576 |  |  |  | 0.0554 |  |  | 
M83E |  | 0.0518 |  |  |  | 0.0546 | 0.051 | 0.0448 | 0.0465 | 
Q97D |  |  |  | 0.069 |  | 0.0709 | 0.0713 |  | 0.0721 | 0.0787
T119W |  |  |  |  |  | 0.0565 |  | 0.0805 | 0.0586 | 

Variant | area with substrate ENLFFQS | area with substrate ENLSFQS | area with substrate ENLIFQS | area with substrate ENLKFQS | area with substrate ENLLFQS | area with substrate ENLNFQS | area with substrate ENLPFQS | area with substrate ENLHFQS | area with substrate ENLGFQS | area with substrate ENLMFQS
S154N |  |  |  |  |  | 0.0489 |  |  | 0.0714 | 
F163A |  |  |  | 0.0709 |  | 0.0668 |  |  | 0.0814 | 
S171K |  |  |  |  |  |  |  |  | 0.0621 | 
N178M |  | 0.0882 |  |  | 0.0785 |  |  | 0.0761 | 0.0695 | 
S182M |  |  |  |  |  |  |  | 0.0576 | 0.0466 | 
S209A |  |  |  | 0.0699 |  | 0.0623 |  | 0.073 | 0.0905 | 
K230A |  |  |  |  |  |  |  | 0.073 | 0.052 | 
G35I |  | 0.0507 |  |  |  |  |  | 0.0555 |  | 
L61T |  |  | 0.0862 |  |  | 0.0645 | 0.0645 | 0.0648 |  | 
F65Q |  | 0.0666 |  | 0.0795 |  |  |  | 0.0405 |  | 
F65V |  |  |  |  | 0.0574 | 0.0609 |  | 0.08 |  | 
D79Q |  | 0.052 |  | 0.0939 |  |  | 0.0513 | 0.0988 |  | 
I85A |  |  |  |  | 0.055 | 0.0414 |  | 0.0611 |  | 
Q97R |  |  |  |  |  |  |  | 0.065 |  | 
L99N |  |  | 0.0696 |  |  |  |  | 0.0649 |  | 
N116T |  |  | 0.0919 |  |  | 0.0749 |  | 0.0559 |  | 
C131F |  |  |  |  |  |  |  | 0.0863 |  | 
G153S |  |  |  |  | 0.0448 |  | 0.0575 | 0.056 |  | 
S158L |  |  |  | 0.1 |  | 0.0596 | 0.0837 | 0.0499 |  | 
T159V |  |  |  | 0.0707 | 0.0511 |  |  | 0.0674 |  | 
T174F |  |  |  | 0.0723 |  |  |  | 0.0657 |  | 
T181I |  |  |  | 0.0428 | 0.053 | 0.0562 |  | 0.0703 |  | 
S182C |  | 0.0509 |  |  | 0.0614 | 0.0687 | 0.0462 | 0.134 |  | 
G214W |  |  |  | 0.0661 |  |  | 0.0489 | 0.0749 |  | 
N53L |  | 0.0357 | 0.0717 | 0.0646 | 0.0421 |  |  |  |  | 
F95N |  | 0.0654 | 0.0914 | 0.0613 |  | 0.0614 | 0.055 |  |  | 

Variant | area with substrate ENLFFQS | area with substrate ENLSFQS | area with substrate ENLIFQS | area with substrate ENLKFQS | area with substrate ENLLFQS | area with substrate ENLNFQS | area with substrate ENLPFQS | area with substrate ENLHFQS | area with substrate ENLGFQS | area with substrate ENLMFQS
C131Q |  |  | 0.0672 |  |  |  |  |  |  | 0.074
N177Q |  | 0.0794 | 0.0975 |  | 0.0759 | 0.0721 | 0.0625 |  |  | 
N186F |  | 0.0676 | 0.0711 | 0.0629 |  | 0.0616 |  |  |  | 
W212N |  |  | 0.0661 |  |  |  | 0.0374 |  |  | 
G2H |  |  |  | 0.0695 |  | 0.0815 | 0.0591 |  |  | 
P89A |  | 0.0579 |  | 0.0753 |  |  |  |  |  | 
P89C |  |  |  | 0.0653 | 0.0529 | 0.0602 |  |  |  | 
T119L |  |  |  | 0.0823 |  |  |  |  |  | 
T147S |  |  |  | 0.0697 |  |  |  |  |  | 
S169Y |  |  |  | 0.0847 | 0.0619 |  |  |  |  | 
S171I |  |  |  | 0.0592 |  |  | 0.0191 |  |  | 
N172W |  |  |  | 0.0508 |  |  |  |  |  | 0.0705
L211T |  |  |  | 0.0822 |  |  |  |  |  | 
G2S |  |  |  |  |  | 0.05 |  |  |  | 
K90A |  |  |  |  |  | 0.0792 |  |  |  | 
T132K |  |  |  |  |  | 0.0684 |  |  |  | 
G138A |  |  |  |  |  | 0.0574 |  |  |  | 
A170F |  | 0.0561 |  |  |  | 0.0731 | 0.0591 |  |  | 
A170Q |  |  |  |  |  | 0.0929 |  |  |  | 
T174E |  |  |  |  |  | 0.0758 |  |  |  | 
N206P |  |  |  |  |  | 0.0946 | 0.0637 |  |  | 
L99W |  | 0.0588 |  |  |  |  | 0.0657 |  |  | 
F163D |  |  |  |  |  |  | 0.0633 |  |  | 
Q227A |  |  |  |  |  |  | 0.0633 |  |  | 
A170I |  | 0.0277 |  |  |  |  |  |  |  | 

Same assay, conditions: temperature: 34 °C; time window: 0-4 h after rhamnose induction

Variant | area with substrate ENLRFQS | area with substrate ENLQFQS | area with substrate ENLVFQS | area with substrate ENLTFQS | area with substrate ENLWFQS
G166E | 0.0438 |  |  |  | 
A170K |  | 0.0592 |  |  | 
N172V | 0.046 |  | 0.0461 |  | 
N178Y | 0.11 |  |  | 0.0774 | 
T181C | 0.132 |  |  |  | 
T181K |  |  |  |  | 0.0387
N186H |  | 0.078 |  |  | 
N186T | 0.0791 |  |  |  | 
N193C |  | 0.0915 |  |  | 0.0636
Q194W | 0.0629 | 0.0725 |  |  | 0.0682
V200D |  |  |  |  | 0.0738
S201H | 0.069 |  |  |  | 
V210E | 0.0631 | 0.0658 |  |  | 
L235F | 0.0793 |  |  |  | 
L235Y |  |  |  |  | 0.0462
M83E | 0.0679 |  |  |  | 0.0574
Q97D |  | 0.072 |  |  | 0.0682
T119W |  | 0.0569 |  |  | 
S171K | 0.0539 |  |  |  | 0.0508
N178M |  |  | 0.0936 |  | 
S209A | 0.0858 |  |  |  | 
K230A |  | 0.0836 |  |  | 0.0607

Variant | area with substrate ENLRFQS | area with substrate ENLQFQS | area with substrate ENLVFQS | area with substrate ENLTFQS | area with substrate ENLWFQS
L61T |  |  | 0.0772 |  | 
F65Q | 0.0744 |  |  |  | 
F65V | 0.0666 |  |  |  | 
I85A |  |  | 0.0728 |  | 0.0584
L99N | 0.0968 |  |  |  | 0.039
G153S |  |  | 0.0543 |  | 
S158L | 0.0666 | 0.0433 |  |  | 
T159V |  |  | 0.091 |  | 
T174F |  | 0.0639 |  |  | 
S182C |  | 0.0644 |  |  | 0.0586
N53L |  | 0.0523 |  |  | 0.0656
F95N | 0.0776 |  |  |  | 
N186F | 0.0875 |  |  |  | 
W212N |  |  | 0.0548 |  | 
G2H | 0.0782 | 0.0709 |  |  | 
P89C | 0.0639 |  | 0.0736 |  | 
T147S |  | 0.0535 |  |  | 
S169Y |  |  | 0.0611 |  | 
G2S |  | 0.0743 |  | 0.0619 | 
L99W | 0.0566 |  |  | 0.0666 | 0.0604
Q227A |  | 0.0688 |  |  | 
F38E |  | 0.0536 |  |  | 
